Data on one molecule can be found in paper PMC5325423.

No constants are given. Whether binding was seen depends on the method and setting. In cells and extracts the contact can be indirect. Some results given as binding are weak or reduced against the parent protein; the word gives no strength.

The assay deals with NF-κB p65, human (human (endogenous in Caco-2)), Q04206. The experiment in a line: co-IP; Caco-2 cell lysates (50 mM HEPES pH 8.3, 420 mM KCl, 0.1% NP-40, 1 mM EDTA) immunoprecipitated with anti-CFTR, anti-β-catenin or anti-NF-κB p65 antibody and protein A/G beads, 4°C overnight; Western blot; IgG control. The conditions noted are these: remark: other sources report otherwise.

B1: β-catenin, human, P35222 1-781 (protein)
chain: MATQADLMELDMAMEPDRKAAVSHWQQQSYLDSGIHSGATTTAPSLSGKGNPEEEDVDTSQVLYEWEQGFSQSFTQEQVADIDGQYAMTRAQRVRAAMFPETLDEGMQIPSTQFDAAHPTNVQRLAEPSQMLKHAVVNLINYQDDAELATRAIPELTKLLNDEDQVVVNKAAVMVHQLSKKEASRHAIMRSPQMVSAIVRTMQNTNDVETARCTAGTLHNLSHHREGLLAIFKSGGIPALVKMLGSPVDSVLFYAITTLHNLLLHQEGAKMAVRLAGGLQKMVALLNKTNVKFLAITTDCLQILAYGNQESKLIILASGGPQALVNIMRTYTYEKLLWTTSRVLKVLSVCSSNKPAIVEAGGMQALGLHLTDPSQRLVQNCLWTLRNLSDAATKQEGMEGLLGTLVQLLGSDDINVVTCAAGILSNLTCNNYKNKMMVCQVGGIEALVRTVLRAGDREDITEPAICALRHLTSRHQEAEMAQNAVRLHYGLPVVVKLLHPPSHWPLIKATVGLIRNLALCPANHAPLREQGAIPRLVQLLVRAHQDTQRRTSMGGTQQQFVEGVRMEEIVEGCTGALHILARDVHNRIVIRGLNTIPLFVQLLYSPIENIQRVAAGVLCELAQDKEAAEAIEAEGATAPLTELLHSRNEGVATYAAAVLFRMSEDKPQDYKKRLSVELTSSLFRTEPMAWNETADLGLDIGAQGEPLGYRQDDPSYRSFHSGGYGQDALGMDPMMEHEMGGHHPGADYPVDGLPDLGHAQDLMDGLPPGDSNQLAWFDTDL
As to B1, the binding entry is given as “binds”.
